Measured values: PubChem BioAssay AID624296 (National Center for Advancing Translational Sciences (NCATS), 2012)
Values joined by “and” are separate entries in the source; they are usually repeats but may differ in a detail not shown here. Identical values can stand only once. The campaign covered roughly 350,000 compounds. About 9,900 (2.8%) were called active. Inconclusive results, whose numbers are uncertain, are shown with a selection of clear calls. Calls follow the shape of the dose curve; as a rule, active = well fitted activation curve with a large enough effect; inconclusive = small, poorly fitted or top-dose-only effect; inactive = no such curve, though single readings can be large or run the other way. Where the call is inconclusive, the potency comes from a doubtful curve fit.

Test: A quantitative high throughput screen for small molecules that induce DNA re-replication in MCF 10a normal breast cells. Also: nearly all actives have a fitted effect of over 50% in size. As to activity, positive = re-replication: % of control where 0% means no effect.
Conditions: MCF 10A DNA re-replication, Hoechst nuclear intensity, 48 h; activity, positive = re-replication: at 46.1 µM (top of the series)
Potency is read from the fitted curve at half-maximal effect; tags tell the direction and shape of the fitted curve.

| Compound | Potency | activity, positive = re-replication |
| --- | --- | --- |
| COc1cc(CNCCN2CCOCC2)ccc1OCc1ccc(Cl)cc1Cl | inconclusive: 20.6 µM [activator, single point] |  |
| C[C@]12c3[nH]c4ccc(Cl)cc4c3CCN1C(=O)[C@@H](CC(=O)NCCC1=CCCCC1)C[C@@H]2C(=O)N1CCOCC1 | inconclusive: 5.17 µM [activator, single point] |  |
| Cc1cc(NC(=O)CCC(=O)N(Cc2ccco2)C(C(=O)NC2CCCCC2)c2ccccc2)no1 (centres undefined) | inconclusive: 23.1 µM [activator, partial curve, poor fit] |  |
| Cc1ccc(C)c(OCC(=O)NCC(c2ccco2)N2CCCCC2)c1 (centres undefined) |  | inactive: 19.2% |
| CCOc1ccc(NS(=O)(=O)c2ccc(OCC)c3ncccc23)cc1 | inconclusive: 16.4 µM [activator, partial curve, poor fit] |  |
| COc1ccc(NC(=O)CN(C)S(=O)(=O)c2cccc3nsnc23)cc1OC |  | inconclusive: -216% [activator] |
| O=C(COc1ccccc1)Nc1ccccc1N1CCCCC1 | inconclusive: 22.4 µM [activator, single point] |  |
| CCCCCCCCCCCCCCCCn1cc[n+](CC(C)=O)c1 | active: 14.6 µM |  |
| CCC(=O)Nc1c(S(=O)(=O)c2ccccc2)c2nc3ccccc3nc2n1C(C)c1ccccc1 (centres undefined) | active: 20.6 µM |  |
| O=C1NC2=C(C(=O)CCC2)C(c2ccccc2[N+](=O)[O-])N1 (centres undefined) | inconclusive: 29.1 µM [activator, single point] |  |
| COc1cc(OC)c(OC)cc1/C=N/Nc1ncnc2c1[nH]c1ccc(C)cc12 | inconclusive: 3.66 µM [activator, partial curve, poor fit] |  |
| Cc1ccc(OCc2cc(C(=O)N3CCN(C4CCCCC4)CC3)no2)cc1C | active: 11.6 µM |  |
| Cc1cccc(NC(=S)N/N=C/c2c[nH]c3ccccc23)c1 | active: 1.84 µM |  |
| CCN(CC)CCN1c2ccccc2Sc2ccc3ccccc3c21 | inconclusive: 29.1 µM [activator, single point] |  |
| CC(C)c1ccc(C(CC(=O)O)NC(=O)c2cccs2)cc1 (centres undefined) | inconclusive: 29.1 µM [activator, single point] |  |
| O=C(NC1CCCC1)C1CCN(S(=O)(=O)N2CCCCC2)CC1 |  | inactive: 0.832% |
| Cc1ccnc(NC(=O)c2ccccc2NC(=O)c2ccc(Cl)cc2Cl)c1 | active: 6.51 µM |  |
| CCc1ccc(C(=O)NNC(=O)C2CSC3(C)CCC(=O)N23)cc1 (centres undefined) |  | inactive: -2.75% |
| COc1ccc(/C=N/NC(=S)Nc2ccccc2[N+](=O)[O-])cc1O | inconclusive: 29.1 µM [activator, single point] |  |
| O=S1(=O)CC2SC(=S)N(Cc3ccccc3)C2C1 (centres undefined) | inconclusive: 0.259 µM [activator, full curve, poor fit] |  |
| COC(=O)c1scc(C)c1S(=O)(=O)Nc1ccc(C)cc1 | inconclusive: 16.4 µM [activator, single point] |  |
| Cc1ccccc1C#N | inconclusive: 10.3 µM [activator, partial curve, poor fit] |  |
| COc1ccc(OC)c(-c2cc(-c3cccnc3)nc(N)c2C#N)c1 | active: 11.6 µM |  |

| Compound | Potency | activity, positive = re-replication |
| --- | --- | --- |
| CC(C)CCNC(=O)NC(=O)CN1C(=O)NC2(CCCCC2)C1=O |  | inactive: 6.04% |
| Cc1nc(C(=O)N/N=C/c2[nH]ncc2Br)cs1 |  | inactive: -1.2% |
| O=C(c1cccs1)N1CCc2ccccc2C1 | inconclusive: 1.84 µM [activator, partial curve, poor fit] |  |
| COc1ccccc1NC(=O)N(CCN1CCOCC1)Cc1cc2cc(C)cc(C)c2[nH]c1=O |  | inactive: 13.2% |
| Cc1ccc(N2C(N)=C(C#N)C(c3cccnc3)C3=C2CC(C)(C)CC3=O)cc1 (centres undefined) | inconclusive: 29.1 µM [activator, partial curve, poor fit] |  |
| CCOC(=O)Cc1nnc2c(Nc3ccc(C)cc3)nc3nonc3n12 | inconclusive: 20.6 µM [activator, partial curve, poor fit] |  |
| CCCc1cc(C(N)=O)c(NC(=O)c2ccco2)s1 | inconclusive: 29.1 µM [activator, single point] |  |
| COc1cc(NC(=O)c2ccccc2)cc(OC)c1 | inconclusive: 3.66 µM [activator, partial curve, poor fit] |  |
| CCc1ccc(N=C2NC(=O)/C(=C/c3cc(OC)c(OC)c(OC)c3)S2)cc1 | active: 11.6 µM |  |
| COc1cc2c(cc1OC)CN(C(=O)c1ccc(S(=O)(=O)N3CCCCCC3)cc1)CC2 | inconclusive: 29.1 µM [activator, partial curve, poor fit] |  |
| CCOc1cc(C)c(S(=O)(=O)Nc2ccc(Cl)cn2)cc1C | active: 23.1 µM |  |
| O=C(COC(=O)CNC(=O)C1CCCCC1)Nc1ccccc1OC(F)F | inconclusive: 29.1 µM [activator, single point] |  |
| CC(C)c1cc(C(=O)O)n(-c2ccccc2)n1 |  | inactive: -3.19% |
| CC1=CC(C)(C)Nc2ccc(OC(=O)CN3C(=O)C4CCCCC4C3=O)cc21 (centres undefined) | active: 7.31 µM |  |
| C[C@H]1CN([C@@H](C)CO)C(=O)c2cccc(NS(=O)(=O)c3ccc(F)cc3)c2O[C@H]1CN(C)Cc1ccc(Cl)c(Cl)c1 | inconclusive: 29.1 µM [activator, single point] |  |
| COc1ccc(/C=N/Nc2nonc2N)cc1OC |  | inactive: -4.52% |
| O=C(CSCc1ccc(Cl)cc1Cl)Nc1nccs1 | inconclusive: 29.1 µM [activator, single point] |  |
| Cc1ccccc1CN1C[C@@H]2C[C@@H](c3cn(C)nc3-c3ccccc3)N3CCC[C@@]23C1=O | inconclusive: 29.1 µM [activator, single point] |  |
| COc1ccc(CCNC(=O)c2nnn(-c3cccc(C)c3)c2N)cc1OC | inconclusive: 32.6 µM [activator, single point] |  |
| Nc1nc(NC(=O)c2ccc(F)cc2)ns1 |  | inactive: 1.41% |
| Cc1ccc(-c2cc(C(=O)N/N=C/c3cccnc3)c3ccccc3n2)cc1C |  | inactive: 17.7% |
| CC(/C=N/n1c(C2CCCCC2)n[nH]c1=S)=C\c1ccccc1 | active: 20.6 µM |  |
| CCC(=O)O[C@]1(C(=O)CCl)[C@@H](C)C[C@H]2[C@@H]3CCC4=CC(=O)C=C[C@]4(C)[C@@]3(F)[C@@H](O)C[C@@]21C | inactive and inconclusive: 18.4 µM [activator, partial curve, poor fit] |  |

| Compound | Potency | activity, positive = re-replication |
| --- | --- | --- |
| Cc1nn(C(C)(C)C)c(OC(=O)CC(C)C)c1S(=O)(=O)c1ccccc1 | inconclusive: 29.1 µM [activator, partial curve, poor fit] |  |
| CCCNC(=O)c1ccc(N2CCC3(CC2)CC(c2ccccc2)=NO3)c(NC(=O)c2cccc(OC)c2)c1 |  | inactive: -15.2% |
| CNc1ccc(Br)cc(C(=O)/C=C/c2cccc(OC)c2)c1=O | active: 18.4 µM |  |
| COc1cccc(NC(=O)CN(C)C(=O)CN2C(=O)NC(C)(c3ccc4ccccc4c3)C2=O)c1 (centres undefined) | inconclusive: 10.3 µM [activator, single point] |  |
| C/C(CC(=O)Nc1cc(C)ccn1)=N\NC(=O)c1ccc(C(C)(C)C)cc1 | inconclusive: 29.1 µM [activator, partial curve, poor fit] |  |
| Cc1cc(Cn2nc(-c3ccccc3)cc2C(=O)NCC2CC2)on1 | inconclusive: 11.6 µM [activator, partial curve, poor fit] |  |
| Nn1c(SCC(=O)Nc2ccc3c(c2)OCCO3)nncc1=O |  | inactive: -0.132% |
| CCOc1ccc(CNC(=O)C2CCCN(c3nnc(C)c4c(C)n(-c5ccccc5)nc34)C2)cc1 (centres undefined) | inconclusive: 29.1 µM [activator, single point] |  |
| CCCCN(CCCC)S(=O)(=O)c1ccc2oc(C(=O)N3CCOCC3)c(C)c2c1 |  | inactive: 2.16% |
| CC(C)(C)NC(=O)C(c1ccc(-c2ccccc2)cc1)N(C[C@H]1CC[C@@H]([C@@H]2CC[C@H](CO)O2)O1)C(=O)c1ccc2ccccc2c1 (some centres undefined) | inconclusive: 29.1 µM [activator, single point] |  |
| OCCNCc1cc(Br)ccc1OCc1ccc(Cl)cc1 |  | inactive: 9.94% |
| c1ccc(-c2ccc3sccc3n2)cc1 | inconclusive: 0.259 µM [activator, full curve, poor fit] |  |
| COc1ccc(Cl)cc1NC(=S)N1CCN(c2ccccn2)CC1 | inconclusive: 0.0052 µM [activator, full curve, poor fit] |  |
| CCOC(=O)c1[nH]c(C=O)c(C(=O)OCC)c1C | active: 11.6 µM |  |
| CCOC(=O)c1c(C)[nH]c(C)c1C(=O)COC(=O)/C=C/c1ccc(OC(F)F)cc1 | inconclusive: 20.6 µM [activator, partial curve, poor fit] |  |
| COc1ccc(C(C)NCCC(c2ccc(OC(C)C)cc2)c2ccccc2OC)cc1 (centres undefined) | active: 23.1 µM |  |
| COc1cccc(CC(=O)OCC(=O)NC(=O)c2ccc(OC(F)F)cc2)c1 |  | inactive: -0.224% |
| Cc1ccc(/C=C/C(=O)c2ccc(O)cc2)cc1 | inconclusive: 29.1 µM [activator, single point] |  |
| CN1C(=O)C(CCC(=O)O)NC1=S (centres undefined) | inconclusive: 32.6 µM [activator, partial curve, poor fit] |  |
| COc1ccccc1-c1noc(-c2cc(OC)c(OC)c(OC)c2)n1 | inconclusive: 20.6 µM [activator, single point] |  |
| Cc1cccc(OCCNc2cc(N3CCN(C)CC3)ccc2[N+](=O)[O-])c1 |  | inactive: 25.4% |
| CC1CN(C(=O)c2ccccc2NS(=O)(=O)c2ccc(Cl)cc2)CC(C)O1 (centres undefined) | inconclusive: 23.1 µM [activator, partial curve, poor fit] |  |
| Cc1nc(NC(=O)c2ccccc2)sc1-c1csc(Nc2ccc(C(=O)O)cc2)n1 | inconclusive: 29.1 µM [activator, single point] |  |
